# The list shows a part of the results.
# Test system: T1, C. trachomatis L2/434/Bu expressing GFP (CTL2-GFP)
# T1 construct: L2/434/Bu GFP intracellular growth in HeLa cells
# Set-up: species or system HeLa; C. trachomatis total inclusion area by high-content imaging, normalised to DMSO
# Conditions: total inclusion area; 28.5 h, 10 µM; inhibitor
# Summary of the method: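 Post-fluorescence-read fixation, DNA staining with Hoechst and high-content imaging; GFP inclusion area and number per well, and nuclei counts, used as proxies for bacterial growth and host viability.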
row,Structure (SMILES),% of control remaining
1,CC1CCN(C(=O)c2cc(-c3ccco3)[nH]n2)CC1 [CBK296648],104.477
2,Cc1ccc(S(=O)(=O)NC(CC(=O)Nc2ccc(Br)cc2)c2ccccc2)cc1 (centres unmarked) [CBK265110],76.5414
3,Cc1cc(=O)oc2ccc(OCC(=O)N(Cc3ccc(F)cc3)Cc3ccco3)cc12 [CBK266639],85.1322
4,CCCCC(C(=O)O)N1C(=O)C2CC=C(Cl)CC2C1=O (centres unmarked) [CBK286536],101.885
5,Cc1ccc2c(C)c(C(=O)Nc3sc4c(c3C(=O)NCc3ccco3)CCC4)oc2c1 [CBK267662],117.104
6,O=C(NO)Nc1cc(Cl)cc(Cl)c1 [CBK016430],35.8061
7,CC(=O)NC(O)C(=O)c1cccs1 (centres unmarked) [CBK027756],82.5835
8,Cn1c(=O)cc(Oc2ccc(F)cc2)c2ccccc21 [CBK281451],102.111
9,Cc1cccc(CN(CC(C)(C)CN)C(=O)NC(C)c2cccc3ccccc23)n1 (centres unmarked) [CBK002423C],90.4408
10,CCOCN(C(=O)Cn1c(C(C)O)nc2ccccc21)c1c(C)cccc1CC (centres unmarked) [CBK297722],96.2092
11,CC1(C)CC(=O)c2cnc3ncnn3c2C1 [CBK007345],90.231
12,O=C1NC(=O)C(CCCCN2CCC(Cc3ccccc3)CC2)N1 (centres unmarked) [CBK126435],100.175
13,CCCN1CCC(NC(=O)c2cc(COc3cccc(F)c3)[nH]n2)CC1 [CBK306753],73.2259
14,Cc1nc(COc2ccccc2)nc(O)c1Cl [CBK057810],76.1999
15,Cc1ccc(S(=O)(=O)Nc2ccc(Nc3cc(-c4cc(C(F)(F)F)cc(C(F)(F)F)c4)ncn3)cc2)cc1 [CBK090968],127.133
16,Cc1csc(N2CCN(C(=O)CCc3nc(C(C)C)no3)CC2)n1 [CBK305341],64.891
17,Cc1nc(C2CCN(Cc3ccccc3)C2)c2ccccn12 (centres unmarked) [CBK282111],106.699
18,O=C(O)C(Cc1c[nH]cn1)N1C(=O)C2C3C=CC(C3)C2C1=O (centres unmarked) [CBK286705],79.9564
19,Cc1nnc(SCCCCSc2nnc(C)n2N)n1N [CBK265686],80.0709
20,Cc1ccc(-c2cc(C(F)(F)F)n3ncc(C(=O)NCc4c(C)nn(C)c4C)c3n2)cc1 [CBK293956],79.7792
21,Cc1nc2ncnn2c(C)c1CCC(=O)Nc1cccc(CCc2ccncc2)c1 [CBK285557],82.3916

row,Structure (SMILES),% of control remaining
1,CC(C)CNc1nc(-c2ccc(F)cc2)cnc1N [CBK063815],83.1913
2,Cc1nc2c(c(=O)[nH]1)CN(Cc1cn(C(C)C)c3ccccc13)CC2 [CBK284014],107.111
3,Cc1ccn2cc(-c3ccc4c(c3)CC(C)N4S(C)(=O)=O)nc2c1 (centres unmarked) [CBK285183],107.552
4,Cc1ccc(C(=O)Nc2nnn(C)n2)c(Cl)c1 [CBK287856],111.538
5,Oc1ccc(-c2oncc2-c2ccccc2)c(O)c1 [CBK288228],79.1144
6,O=C(Cc1ccccc1)N1CCN(CCCc2ccccc2)CC1 [CBK263451G],100.573
7,O=C(NC1CCCC1)c1ccnc2ccccc12 [CBK200237],93.7398
8,COC1C(O)C(CO)OC1n1cc(I)c(N)nc1=O (centres unmarked) [CBK201296],103.734
9,CCCC/C=C/c1cncc(NCc2ccc(OC)cc2)n1 [CBK037933],128.292
10,Cc1ccc(-n2nc(C(=O)NC3(C#N)CCSC3)cc2C)cc1 (centres unmarked) [CBK306403],111.179
11,Cc1cc(N(C)CCOc2ccccc2F)nc(N)n1 [CBK305969],35.699
12,COCCN(Cc1ccccc1C)C(=O)C1CCc2nn(C)c(=O)n2C1 (centres unmarked) [CBK306934],81.6
13,NCCCNC(=O)c1cc2ccccc2[nH]1 [CBK267639],90.019
14,CC(C)(C)c1cc(CN(Cc2cc(C(C)(C)C)c(O)c(C(C)(C)C)c2)C2CCCCC2)cc(C(C)(C)C)c1O [CBK261996],81.6582
15,CCN(CC)C(=O)C1CCCN(C(=O)Nc2ccc3c(c2)OCCO3)C1 (centres unmarked) [CBK156135],93.1003
16,O=C(O)c1ccc(CN2C(=O)c3ccc(C(=O)O)cc3C2=O)cc1 [CBK262823],99.944
17,COc1ccccc1-c1ccc(CN2CCC(NC(C)=O)(c3ccc(F)cc3)CC2)cc1 [CBK286349],92.1876
18,CCOC(=O)N1CCN(S(=O)(=O)c2ccc3c(c2)oc(=O)n3C)CC1 [CBK304667],37.64
19,CC(C)(Oc1ccc(F)cc1)C(=O)N1CCC(C(=O)NCCc2ccccc2)C1 (centres unmarked) [CBK285702],102.713
20,Cc1c(CNc2nnc(C(C)(C)C)o2)cnn1C [CBK306439],68.5598
21,CCc1nn(CC(=O)NCC2CC2)c(=O)c2cc3ccsc3n12 [CBK284129],85.9717

row,Structure (SMILES),% of control remaining
1,CN1CCN(c2cnn(CCCOc3ccccc3)c(=O)c2)CC1 [CBK307203],106.877
2,Cc1nccn1-c1ccc(NC(=O)c2ccn(C(F)F)n2)cc1 [CBK281410],84.7755
3,CC(=O)N1CCCC(c2nc(-c3ccncc3)ncc2-c2ccccc2)C1 (centres unmarked) [CBK291110],124.247
4,Cc1cc(C(=O)Nc2nnc(Cc3ccccc3)s2)c2ccccc2n1 [CBK295607],108.791
5,CCOc1ccc(-c2cn(C(=O)Nc3ccccc3)nc2N)cc1 [CBK267317],110.727
6,COc1cccc(OCC(O)CN2CCN(Cc3ccccc3)CC2)c1 (centres unmarked) [CBK074856C],88.4178
7,Fc1c(CN2CCOCC2)cccc1CN1CCOCC1 [CBK085967],96.7591
8,CC(NC(=O)CC(F)(F)F)c1nc(-c2ccncc2)cs1 (centres unmarked) [CBK306370],89.1167
9,COc1ccc(OC)c(C(C)NC(=O)C2CCN(CCc3cccs3)CC2)c1 (centres unmarked) [CBK148766],99.1947
10,O=C(Nc1ccccc1OC1CCNCC1)c1ccccc1 [CBK050238T],85.5684
11,CC(=O)Nc1ccc(C2=NC3SC(c4ccc(NC(C)=O)cc4)=NC3S2)cc1 (centres unmarked) [CBK019799],101.586
12,c1ccc(C(NCc2cnc(C3CCC3)s2)C2CCCC2)nc1 (centres unmarked) [CBK304022],51.0343
13,CC1CCCN(CC(O)c2ccc3c(c2)CCCN3C(=O)C2CC2)C1 (centres unmarked) [CBK282136],82.6745
14,Cc1c(Cl)c([N+](=O)[O-])nn1CCCC(=O)Nc1cc(Br)ccc1O [CBK268875],95.1726
15,CC[C@H](Cn1nc(-c2cccs2)ccc1=O)NC(=O)C(C)C [CBK284296],79.6374
16,N#CCCn1cc(C(=O)Nc2ccc(C(=O)O)cc2)c(-c2cc3ccccc3o2)n1 [CBK267866],109.437
17,CCN(CC)CCCNC(=O)N1CCN(Cc2ccccc2)CC1 [CBK155655],96.3358
18,CCOc1ccc(C(N)CC(=O)O)cc1 (centres unmarked) [CBK262933C],82.956
19,CCN1CCN(c2ccc(NC(=O)c3cccnc3)cc2Cl)CC1 [CBK266629C],113.492
20,Cc1cc(C)cc(Oc2coc3c(CN4CCOCC4)c(O)ccc3c2=O)c1 [CBK263908],110.868
21,O=C(CCCOc1ccc(Cl)cc1Cl)NO [CBK288436],88.4142

row,Structure (SMILES),% of control remaining
1,CCCNc1nccnc1-c1ccccc1F [CBK037231],113.298
2,O=C(NCC1COc2ccccc2O1)c1ccc2[nH]ccc2c1 (centres unmarked) [CBK149054],85.2194
3,COc1ccccc1C(NC(=O)C1CCN(CCc2c[nH]c3ccccc23)CC1)c1ccccn1 (centres unmarked) [CBK147923],97.2621
4,COc1ccc2c(c1)CC(=O)NC21CCN(C(=O)NC(C)C)CC1 [CBK047261],97.1955
5,NC(=O)c1ccc(NC(=O)N2CCN(CCc3ccccc3)CC2)cc1 [CBK158924],96.4145
6,COc1ccc(-c2cc(C(=O)Nc3ccc(CCO)cc3)cnc2-c2cccc(C)c2)cn1 [CBK037461],111.698
7,Cc1cc(Cl)c(S(=O)(=O)N2CCCC2)cc1OCC(=O)NC1CCCCC1 [CBK266781],96.7781
8,CC(NC(=O)c1ncoc1-c1ccccc1)c1ccccn1 (centres unmarked) [CBK283889],98.3836
9,COc1cccc2sc(Nc3nc4c(s3)C(=O)CC(C)(C)C4)nc12 [CBK287467],64.1502
10,CN(C)S(=O)(=O)N(C)c1ccc(C(=O)O)cc1 [CBK287244],84.1591
11,Cc1ccc(CN2CCC3(CCCNC3=O)CC2)cc1 [CBK284822],94.503
12,O=C(c1cc(-c2ccc(Cl)cc2)[nH]n1)N1CCNCC1 [CBK116548],55.2469
13,CCCC1CCCN(Cc2nnnn2-c2ccc(S(C)(=O)=O)cc2)C1 (centres unmarked) [CBK304142],57.6993
14,CCn1c(CN2CCCC2c2nc(N(C)C)ncc2-c2ccccc2)nc2ccccc21 (centres unmarked) [CBK286070],73.2615
15,CCOC(=O)N1COC[C@@H]1C(=O)O [CBK010379],27.0811
16,O=C(O)c1cc(S(=O)(=O)N2CCCCC2)ccc1O [CBK286595],63.9548
17,CCOC(=O)c1ccc(-n2c(CCC(=O)O)ccc2-c2cccs2)cc1O [CBK266015],73.2018
18,C/C(=N/Nc1nc[nH]n1)c1ccc(Cl)c(Cl)c1 [CBK028722],25.38
19,CCCCSc1cc(C)nc2ncnn12 [CBK021443],110.346
20,CCc1ccc(CN2CCN(C(=O)c3ccncc3)CC2)cc1 [CBK301211G],100.462

# Source: PMC12040169 (PLOS Biology, 2025)
